Some of the results follow.

The assay concerns T1, C. trachomatis L2/434/Bu expressing GFP (CTL2-GFP).
T1 construct: L2/434/Bu GFP intracellular growth in HeLa cells
Details: species or system HeLa; C. trachomatis total inclusion area by high-content imaging, normalised to DMSO. The note with it: total inclusion area; 28.5 h, 10 µM; inhibitor. The method, boiled down:
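Following bulk GFP and resorufin fluorescence reads, infected cells were fixed, Hoechst-stained and imaged on a high-content platform. Inclusion total area and number per well served as growth proxies; nuclei counts indicated host viability. MICs were derived as for the fluorescence assay.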
Regarding `Cc1cc(C)n(-c2ccc3nnc(CCC(=O)Nc4nccs4)n3n2)n1` [CBK307617], the “% of control remaining” value is 91.4524.
On to `COc1ccccc1CC(=O)N1CCn2cc(C(F)(F)F)nc2C1` [CBK283806], for which the “% of control remaining” value was found to be 88.3372.
As to `CCCCSc1nnc(NS(=O)(=O)c2ccc(NC(C)=O)cc2)s1` [CBK022853], the “% of control remaining” value was found to be 90.1765.
The value for `CC(C)(C)c1ccc(-n2cc(-c3ccc(F)cc3F)nn2)cc1` [CBK094818] was 76.1169; that for `CC1(C)CC(=O)C=C(C(=O)Nc2c(F)cc(F)cc2OC2CCNCC2)O1` [CBK050332T] was 34.4737; that for `CN(C)c1oc(-c2ccccc2)nc1S(=O)(=O)c1ccccc1` [CBK021477] was 69.7858.
Next, `COc1ccc(S(=O)(=O)NC(C)C(=O)NCc2ccncc2)cc1` (stereo not drawn) [CBK269441]: 78.0044; `COc1ccc(S(=O)(=O)N(CC(=O)O)c2ccc(Cl)cc2)cc1OC` [CBK267836]: 111.921.
Consider `O=C(Cc1cn2ccsc2n1)NCCCN1CCCc2ccccc21` [CBK306611], for which the “% of control remaining” value was 85.4629.
With `Cc1oc2ccc(O)cc2c1C(=O)N(C)CCOc1ccccc1` [CBK282696], the “% of control remaining” value came to 132.307.
Take `N=C1NC(=O)/C(=C/c2ccc(OC(=O)c3cccc([N+](=O)[O-])c3)cc2)S1` [CBK263606]: the “% of control remaining” value came to 109.708.
The value for `Nc1ncnc2[nH]c(SCc3nc4ccc(I)cc4c(=O)n3-c3ccccc3)nc12` [CBK267174] was 99.8167; that for `O=C(CC(C(=O)O)n1cccn1)c1ccc(Br)cc1` (stereo not drawn) [CBK269541] was 125.504; that for `O=C(NCc1ccco1)c1cc(S(=O)(=O)N2CCOCC2)ccc1Br` [CBK269907] was 102.742.
Next, `N=C1NC(=O)/C(=C/c2cccc(OCCOc3ccc(C4CCCCC4)cc3)c2)S1` [CBK263956]: 101.311; `CCN(Cc1cn2cccc(C(=O)OC)c2n1)CC1CCOC1` (stereo not drawn) [CBK304880]: 45.9162.
The value for `Cc1nc2ccc(NC(=O)CC3CCN(C(=O)CC4CCCCC4)CC3)cc2[nH]1` [CBK285967] was 151.676; that for `CN(c1ncc(Br)cc1C(=O)NC1CCCCC1)S(C)(=O)=O` [CBK076531] was 77.2253.
With `CC(C(=O)NCCn1nc(-c2ccco2)ccc1=O)c1ccccc1` (stereo not drawn) [CBK283861], the “% of control remaining” value turned out to be 99.146.
The value for `COc1cccc(-n2cnc3cccc(N)c32)c1` [CBK022114] was 78.317; that for `Cn1cncc1C(=O)NC1CCCC1` [CBK200256] was 80.1333; that for `COCc1cc(=O)oc2cc(NS(C)(=O)=O)ccc12` [CBK008516] was 69.1974.
Next, `Cc1ccc(C)n1-c1ccc(C(=O)OCC(=O)c2cccc([N+](=O)[O-])c2)cc1` [CBK264427]: 95.527.
For `Cc1ccc(-c2nnc(CNC(=O)c3cccc(-c4ccc(F)cc4)c3)o2)s1` [CBK286300], the “% of control remaining” value worked out at 103.742.
On to `Cc1cc(C)nc(NC(=O)C2C3C=CC(C3)C2C(=O)O)c1` (stereo not drawn) [CBK058843], for which the “% of control remaining” value stood at 70.8468.
Next, `Cc1cc(/C=C(/C#N)c2nc3ccccc3[nH]2)c(C)n1-c1ccc(S(N)(=O)=O)cc1` [CBK264769]: 108.53; `COc1ccc(NS(=O)(=O)c2ccc(N3CCCC3=O)cc2)cn1` [CBK270216]: 54.1367; `CN1CCN(C(=O)CSc2nnc(COc3ccccc3)o2)CC1` [CBK268970]: 95.0246.
Next, `O=[N+]([O-])c1ccc(S(=O)(=O)Nc2cccc3[nH]ccc23)cc1` [CBK159550]: 82.467; `Cc1cc(C(=O)N2CCn3cnnc3C2)c(C2CC2)o1` [CBK282059]: 81.3146.
`COc1cccc(C(=O)NCCC(=O)N2CCN(C)CC2)c1` [CBK304663]: the “% of control remaining” value amounted to 80.5718.
Turning to `CCc1noc(C)c1C(=O)NCC1CCCCN1CC` (stereo not drawn) [CBK282201], the “% of control remaining” value was 100.391.
The value for `O=C(Cn1ncn2c(cc3ccsc32)c1=O)NCc1cccs1` [CBK284197] was 60.884.
Next, `Cc1cc(C2CCCCCN2C(=O)c2c(Cl)cnn2C)on1` (stereo not drawn) [CBK283045]: 72.2999; `O=C(c1ccccc1)N1CCN(Cc2cc(=O)n3ccsc3n2)CC1` [CBK306095]: 68.5761; `O=C(Nc1cc(-c2nc3ncccc3o2)ccc1Cl)c1ccc(-c2ccccc2[N+](=O)[O-])o1` [CBK264097]: 114.487.
The value for `Nc1nc(N)c2cc(C(F)(F)F)ccc2n1` [CBK025934] was 16.181; that for `C[C@@H](Nc1nccnc1-c1cccnc1)c1ccccc1` [CBK036759] was 73.6873; that for `O=C1Nc2ccccc2C(O)(C(=O)NCc2ccccc2)N1c1ccccc1` (stereo not drawn) [CBK288555] was 89.8634.
As to `N=C1NC(=O)/C(=C\c2ccc(-c3ccc(Br)cc3)o2)S1` [CBK261409], the “% of control remaining” value is on record as 59.1449.
Take `O=C(O)CCCN1C(=O)C(O)=C(C(=O)c2ccccc2)C1c1ccccc1` (stereo not drawn) [CBK262924]: the “% of control remaining” value stood at 106.331.
Consider `CCOCCN(CCOCC)c1nnc2ccc(Cl)nn12` [CBK010024], for which the “% of control remaining” value was 77.0942.
The value for `Cc1cc(-c2ccccc2)nn(CCN2CCOCC2)c1=O` [CBK023022C] was 11.3294; that for `COc1cc(C(=O)N2CCC3(CC2)CC(=O)c2cc(C)c(C)cc2O3)ccc1C` [CBK164202] was 108.587; that for `COc1ccc(C2(C(=O)NCCc3ccc(O)cc3)CC2)cc1` [CBK149833] was 92.436.
In the case of `Cc1ccc(CN2CC[C@@H]3[C@H](C2)[C@@H](c2ccsc2)CN3C(=O)c2ccccc2F)cc1` [CBK285658], the “% of control remaining” value was 74.0505.
In the case of `c1ccc2oc(NC3=NCN(Cc4ccc5c(c4)OCO5)CN3)nc2c1` [CBK267964], the “% of control remaining” value is 99.6273.
Next, `Cc1cc(C)n(CCCC(=O)N2CCC3(CCCO3)CC2)n1` [CBK304397]: 68.9855; `CCC1CN(c2cc(CO)c(F)cn2)CC2(CCOC2)O1` (stereo not drawn) [CBK304757]: 46.9516.
For the molecule `CC(=O)Nc1cccc(OCC(=O)Nc2ccc(C)c(C)c2)c1` [CBK265429], the “% of control remaining” value amounted to 104.447.
Next, `COC(=O)c1sc2cc(C(F)(F)F)cnc2c1NC(=O)C1COc2ccccc2O1` (stereo not drawn) [CBK115865]: 90.9032.
With `COc1ccc2c(c1)c(C(C(=O)O)N1CCN(c3ccccn3)CC1)cn2CC(=O)O` (stereo not drawn) [CBK286637], the “% of control remaining” value is given as 110.489.
Next, `COc1ccc(C2(C(=O)N3CCN(C)CC3)CC2)cc1` [CBK149837]: 98.5277; `CC12CCC(=O)N1CCCN2` (stereo not drawn) [CBK067102T]: 50.9397.
Next, `Cc1cc(C)nc(SCc2c(C)c(C)c(CSc3nc(C)cc(C)n3)c(C)c2C)n1` [CBK262070]: 96.9455; `O=C(NC(N1CCCCC1)C(Cl)(Cl)Cl)NC(N1CCCCC1)C(Cl)(Cl)Cl` (stereo not drawn) [CBK261020]: 103.2; `OCCCN1CCC(Oc2cncc(OCc3cccnc3)n2)C1` (stereo not drawn) [CBK084465]: 82.3644.
For `Cc1nc(N)nc(NCC2CCN(C3CC3)C2)c1Cl` (stereo not drawn) [CBK306575], the “% of control remaining” value was 54.9125.
The value for `c1ccc2c(c1)CCC(Oc1cncc(N3CCNCC3)n1)C2` (stereo not drawn) [CBK172295G] was 34.0774.
The value for `Cc1ccc2oc(C(=O)N3CCC(Oc4cccnc4)CC3)cc2c1` [CBK281498] was 85.6952; that for `COCCCn1c(=O)[nH]c2ncc(-c3cccc(C(=O)NCCO)c3)nc21` [CBK065042] was 99.6559; that for `Nc1ncc(-c2cc(C(F)(F)F)cc(C(F)(F)F)c2)nc1NCc1ccco1` [CBK063689] was 126.512.
Turning to `Cc1nc2c(OCc3ccc(C#N)cc3)cccn2c1N(C)Cc1cccs1` [CBK147336], the “% of control remaining” value was 107.29.
As to `Cc1nccn1CCC1CCN(C(=O)CCCn2ccnc2)CC1` [CBK281988], the “% of control remaining” value amounted to 106.227.
Next, `Cc1cc(Cl)c(S(=O)(=O)Nc2cccc(Br)c2)cc1OCC(N)=O` [CBK266535]: 108.407.
Turning to `CCc1nnc(SCc2cccc(C(=O)O)c2)o1` [CBK286993], the “% of control remaining” value was found to be 112.45.
In the case of `O=C(NC1CCS(=O)(=O)C1)c1c[nH]c2ccccc2c1=O` (stereo not drawn) [CBK304295], the “% of control remaining” value is listed as 52.0598.
`CCn1cc(C(=O)N2CCC(C(=O)OC)CC2)c(=O)c2ccc(C)nc21` [CBK305848]: the “% of control remaining” value was found to be 70.5171.
The value for `COc1ccc(C(C)C)cc1-c1nccnc1NCc1ccc(S(C)(=O)=O)cc1` [CBK036903] was 92.6332.
Take `COc1nc2ccn(CCC3CCOC3)c(=O)c2cc1C#N` (stereo not drawn) [CBK307343]: the “% of control remaining” value came to 68.7513.
With `COCC(=O)NCC1Cc2cc(F)cc(-c3ccc(C(C)=O)s3)c2O1` (stereo not drawn) [CBK307310], the “% of control remaining” value was found to be 70.6765.
The value for `CC1CCC(N(Cc2nnc(C3CCC3)n2C)CC2CCCO2)CC1` (stereo not drawn) [CBK305540] was 71.2929; that for `COc1ccc(/C=C(/NC(=O)c2cccc(Cl)c2)C(=O)Nc2ccccc2)cc1` [CBK263342] was 46.9226.
Next, `NS(=O)(=O)c1ccc(CCNC(=O)c2cc(Br)cnc2N2CCOCC2)cc1` [CBK076225]: 99.5124; `CC(=O)NCCn1cc2c(n1)[C@H]1CN(C(=O)C(C)C)C[C@H]1CC2` [CBK284571]: 111.131; `COc1ccc(CNc2cc(/C=C/c3ccccc3)nc3ccnn23)cc1` [CBK037075]: 100.425.
Regarding `Cc1ccc2cc(CN3CCCC(N)CC3)c(N3CCOCC3)nc2c1` (stereo not drawn) [CBK307693], the “% of control remaining” value is on record as 69.8464.
As to `CCOc1cc(/C=C2\SC(=N)NC2=O)ccc1OS(=O)(=O)c1ccc(NC(C)=O)cc1` [CBK265243], the “% of control remaining” value is recorded as 99.8014.
Next, `N#Cc1ccc(NCC(=O)Nc2ccn(Cc3ccncc3)n2)cc1` [CBK306241]: 32.1744.
Consider `O=c1/c(=C/c2ccc(N3CCOCC3)cc2)sc2nc3cc(Br)cnc3n12` [CBK262574], for which the “% of control remaining” value is on record as 101.254.
Regarding `CC(C)(C)C(=O)N1CCC(n2nc(C3CC3)ccc2=O)CC1` [CBK284242], the “% of control remaining” value worked out at 82.7452.

(Values after PMC12040169 (PLOS Biology, 2025).)
